Laboratory results taken from the supplement of paper PMC5998384.

Tests used:
HeLa Kyoto [1] = experiment: solubility change mitosis vs G1/S (difference of NP-40 vs SDS log2 ratios) (log2 ratio difference); higher = more soluble in mitosis
HeLa Kyoto [2] = experiment: thermal stability score vs G1/S (z-score of summed log2 fold changes over temperatures); higher = more thermally stable than in G1/S
HeLa Kyoto [3] = experiment: solubility in G1/S (NP-40 vs SDS abundance) (log2 ratio); higher = more soluble; details: cell cycle stage: G1/S
HeLa Kyoto [4] = experiment: melting temperature (median over replicates), in situ; higher = more thermally stable
[5] = cell cycle stage: early G1 (4.5 h after nocodazole release)
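Wherever melting temperature (median over replicates), in situ is given: HeLa Kyoto cells synchronized by double thymidine or nocodazole block, proteins quantified by TMT10plex mass spectrometry, three independent biological replicates.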
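Wherever solubility change mitosis vs G1/S (difference of NP-40 vs SDS log2 ratios) is given: synchronized HeLa Kyoto cells (double thymidine block for G1/S, nocodazole release for mitosis), protein amounts in NP-40 versus SDS lysates quantified by mass spectrometry, three biological replicates.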
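Wherever solubility in G1/S (NP-40 vs SDS abundance) is given: HeLa Kyoto cells arrested at G1/S by double thymidine block, proteins quantified by TMT10plex mass spectrometry in mild NP-40 versus SDS extracts, three biological replicates.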
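Wherever thermal stability score vs G1/S (z-score of summed log2 fold changes over temperatures) is given: synchronized HeLa Kyoto cells, proteins quantified by TMT10plex mass spectrometry, three biological replicates, mitosis taken 0.5 h after nocodazole release, G1/S directly after double thymidine block.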

Substance | solubility change mitosis (log2) (HeLa Kyoto [1]) | thermal stability score (HeLa Kyoto [2]; [5]) | thermal stability score (HeLa Kyoto [2]; cell cycle stage: mitosis) | solubility in G1/S (log2) (HeLa Kyoto [3]) | melting temperature (HeLa Kyoto [4]; cell cycle stage: G1/S) [°C] | melting temperature (HeLa Kyoto [4]; cell cycle stage: mitosis) [°C]
NCOR2 | -0.0056 | -0.00372 | 6.48 | 0.0268 | 48.7 | 51.4
NDUFS2 (sequence left out) | -0.143 | 0.0241 | -0.281 | -0.138 | 52.3 | 52.3
NDUFS6 (sequence left out) | 0.126 | -2.28 | -2.51 | 0.246 | 56.2 | 52.4
SH3KBP1 (sequence left out) | -0.0457 | 0.232 | 0.718 | 0.347 | 52.5 | 52.4
TBC1D9B (sequence left out) | -0.183 | 0.53 | 0.989 | -0.0909 | 50.2 | 50.6
UBA5 (sequence left out) | -0.158 | 1.63 | -0.14 | 0.0904 | 53.8 | 53.9
UBE2L3 (sequence left out) | 0.438 | -2.33 | -4.07 | 0.828 | 54.8 | 53.4
[skipping about 200 residues]VQCKVTLLDGTEYSCDLEKHAKGQVLFDKVCEHLNLLEKDYFGLLFQESPEQKNWLDPAKEIKRQLRNLPWLFTFNVKFYPPDPSQLTEDITRYFLCLQLRQDIASGRLPCSFVTHALLGSYTLQAELGDYDPEEHGSIDLSEFQFAPTQTKELEEKVAELHKTHRGLSPAQADSQFLENAKRLSMYGVDLHHAKDSEGVDIKLGVCANGLLIYKDRLRINRFAWPKILKISYKRSNFYIKVRPAELEQFESTIGFKLPNHRAAKRLWKVCVEHHTFYRLVSPEQPPKAKFLTLGSKFRYSGRTQAQTRQASTLIDRPAPHFERTSSKRVSRSLDGAPIGVMDQSLMKDFPGAAGEISAYGPGLVSIAVVQDGDGRREVRSPTKAPHLQLIEGKKNSLRVEGDNIYVRHSNLMLEELDKAQEDILKHQASISELKRNFMESTPEPRPNEWEKRRITPLSLQTQGSSHETLNIVEEKKRAEVGKDERVITEEMNGKEISPGSGPGEIRKVEPVTQKDSTSLSSESSSSSSESEEEDVGEYRPHHRVTEGTIREEQEYEEEVEEEPRPAAKVVEREEAVPEASPVTQAGASVITVETVIQENVGAQKIPGEKSVHEGALKQDMGEEAEEEPQKVNGEVSHVDIDVLPQIICCSEPPVVKTEMVTISDASQRTEISTKEVPIVQTETKTITYESPQIDGGAGGDSGTLLTAQTITSESVSTTTTTHITKTVKGGISETRIEKRIVITGDGDIDHDQALAQAIREAREQHPDMSVTRVVVHKETELAEEGED [EPB41L2] | -0.035 | -0.758 | -0.0297 | -0.0395 | 51.9 | 51.9
